Assay results taken from PubChem BioAssay AID1345082 (National Center for Advancing Translational Sciences (NCATS), 2018).
In all, about 94,000 compounds went through this assay and about 4,000 (4.3%) were called active. Inconclusive means that the source gave no clear call. Such entries were picked first, then a sample of the others. Calls follow the shape of the dose curve; as a rule, active = well fitted inhibition curve with a large enough effect; inconclusive = small, poorly fitted or top-dose-only effect; inactive = no such curve, though single readings can be large or run the other way. Potencies beside an inconclusive call are fits to weak or partial responses and may not hold up.

Assay: Cytotoxic Profiling in NIH 3T3 Cell Line of Diverse Libraries Using Quantitative High-Throughput Screening; also: nearly all actives have a fitted effect of over 55% in size
Settings: NIH 3T3 viability, CellTiter-Glo ATP luminescence, 48-72 h; series mostly up to 96.7 µM
In short: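 Cells were seeded at 400 per well, treated with pin-transferred compound, and kept 48 or 72 hr at 37 °C before CellTiter-Glo addition and luminescence imaging of cellular ATP.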
Potency is read from the fitted curve at half-maximal effect; tags tell the direction and shape of the fitted curve.

| Structure (SMILES) | Potency |
| --- | --- |
| CC(C)C(=O)N1CCCN(c2ccnc3ccnn23)CC1 | inconclusive: 100 µM [inhibitor, partial curve, poor fit] |
| COC(=O)c1ccc2nc(C[C@@H]3C[C@@H](C(C)C)[C@H](CNC(=O)C4CCC4)C=C3C)[nH]c2c1 | inconclusive: 50.1 µM [inhibitor, partial curve, poor fit] |
| COc1cccc(N2C(=O)NC(=NC3CCCCC3)C23CCN(Cc2cccnc2)CC3)c1 | inconclusive: 44.7 µM [inhibitor, partial curve, poor fit] |
| CCOc1ccc(C(=O)NC2CCN(c3cc(-c4cccs4)[nH]n3)CC2)cc1OCC | inconclusive: 44.7 µM [inhibitor, partial curve, poor fit] |
| COc1cccc(NC(=O)CCC2CCN(C(=O)c3ccccc3)CC2)c1 | inconclusive: 35.5 µM [inhibitor, full curve, poor fit] |
| COC1CCOC2(CCN(C(=O)c3ccncc3)CC2)C1 (centres undefined) | inactive |
| Cc1ccc(CN2CCCCCCNC(=O)[C@@H]3C[C@@H](C(=O)NCCc4c[nH]c5ccccc45)C[C@@H]32)o1 | inconclusive: 50.1 µM [inhibitor, partial curve, poor fit] |
| COc1ccccc1Nc1ccnc(N2CCC(NC(=O)c3ccc(Cl)cc3)CC2)n1 | active: 31.6 µM |
| COc1ccc(OCc2nc(C3CN(C(=O)CCCc4ccccc4)C3)no2)cc1 | inconclusive: 44.7 µM [inhibitor, partial curve] |
| Cn1ccc2c(C(=O)NCc3cccnc3)nc(-c3cccc(F)c3)cc21 | inconclusive: 31.6 µM [inhibitor, partial curve, poor fit] |
| COCCOc1ccnc(-c2noc([C@@H]3CCCN3Cc3cn(C)c4ccccc34)n2)c1 | inconclusive: 112 µM [inhibitor, single point] |
| O=C(c1nccc2ccccc12)N1CCC(N2C(=O)C(OCC3CC3)C23CCCCC3)CC1 (centres undefined) | inactive |
| Nc1ncccc1CN1CC(COc2ccccc2)C2(C1)CN(c1ccccc1)C2 (centres undefined) | active: 39.8 µM |
| CNC(=O)[C@@H]1C[C@@H](N)CN1C(=O)c1cnn(-c2ccccc2OC)c1 | inactive |
| CCN1CCCC2(CCN(C(=O)NCCc3ccccc3F)C2)C1=O (centres undefined) | inactive |
| Cc1nn2c(c1-c1ccccc1Oc1ccccc1)N([S+](=O)([O-])c1cccnc1)CCC2 | inconclusive: 50.1 µM [inhibitor, partial curve, poor fit] |
| CCN1c2cc(C(=O)NCc3ccc(C)cc3)ccc2C(=O)N2CCCCCC21 (centres undefined) | inconclusive: 50.1 µM [inhibitor, partial curve, poor fit] |
| CCCCCCOC(=O)C1=CN(C)S(=O)(=O)N=C1C | inconclusive: 35.5 µM [inhibitor, partial curve, poor fit] |
| CCn1ncc(N2CCCC(CC(=O)NCCC3=CCCCC3)C2)cc1=O (centres undefined) | inconclusive: 15.8 µM [inhibitor, full curve, poor fit] |
| CCCNC(=O)Cc1csc2nc(C)c(-c3cc(C)n(-c4ccc(C(C)C)cc4)n3)c(=O)n12 | inactive |
| CC(C)CNC(=O)CN1CN(c2ccccc2)C2(CCN(C(=O)NC3CCCCC3)CC2)C1=O | inconclusive: 44.7 µM [inhibitor, partial curve, poor fit] |
| Cc1ccccc1-c1noc(CCCC(=O)N2CCn3nc(CO)cc3C2)n1 | inconclusive: 14.1 µM [inhibitor, full curve, poor fit] |

| Structure (SMILES) | Potency |
| --- | --- |
| CC(C)(Oc1nn(Cc2cccc(Cl)c2)c2ccccc12)C(=O)N1CCOCC1 | inconclusive: 56.2 µM [inhibitor, partial curve, poor fit] |
| NC(=O)COC[C@@H]1CN(C2CCSCC2)C[C@H]1c1ccncc1 | inconclusive: 70.8 µM [inhibitor, partial curve, poor fit] |
| COc1cccc(N2C(=O)NC(=NC3CCCCC3)C23CCCN(CCC(C)C)C3)c1 (centres undefined) | inconclusive: 31.6 µM [inhibitor, full curve, poor fit] |
| Cc1ccc(C(=O)N2CC(c3nnc(-c4ccncc4)o3)C3(CCOCC3)C2)c(C)c1 (centres undefined) | inactive |
| O=C(Nc1cccc(-c2ccco2)c1)C1CCN(C(=O)NCc2ccco2)CC1 | inconclusive: 89.1 µM [inhibitor, partial curve, poor fit] |
| Cc1ccc(CC(=O)N2CCc3cn(C)c4cccc(c34)C2)cc1 | inconclusive: 44.7 µM [inhibitor, partial curve, poor fit] |
| CN(C)CCNC(=O)C1(CCO)CC12CCOCC2 (centres undefined) | inactive |
| O=C(CNC(=O)c1ccc(-c2cccc(C(F)(F)F)c2)cc1)NCC(F)(F)F | inactive |
| CCc1ccc(CNC(=O)CCc2conc2-c2cccc(C)c2)cc1 | inconclusive: 70.8 µM [inhibitor, single point] |
| Cc1ncc2c(c1CNC(=O)Cc1ccc(C(F)(F)F)cc1)CCNC2 | inactive |
| O=C(Nc1cc(F)cc(F)c1)N1CCCC2(C1)Nc1cccnc1NC2=NC1CCCC1 (centres undefined) | inconclusive: 44.7 µM [inhibitor, partial curve, poor fit] |
| COCCNC(=O)c1ccc2oc(-c3ccnc(Cl)c3)nc2c1 | inactive |
| Cc1ccc(Nc2ccnc(N3CCN(C(=O)C(C)(C)C)CC3)n2)cc1 | inconclusive: 56.2 µM [inhibitor, partial curve, poor fit] |
| CCCN(Cc1ccco1)C(=O)C1CCC(=O)N(CC2CCCCC2)C1 (centres undefined) | inconclusive: 8.91 µM [inhibitor, partial curve, poor fit] |
| Cc1ccc(-c2cccc(CN3CCCC3C(=O)N3CCCC(C)C3)c2)cc1Cl (centres undefined) | active: 31.6 µM |
| CCN(C1CCOCC1)C1CN(C(=O)c2ccccn2)C1 | inactive |
| O=C(Nc1cccc(F)c1)c1cnc2c(c1)N(C(=O)Cc1cccc(C(F)(F)F)c1)CCC2 | inconclusive: 44.7 µM [inhibitor, partial curve, poor fit] |
| O=C(c1cccc(Cl)c1)N1CCn2c(nn(-c3ccncc3)c2=O)C1 | inconclusive: 44.7 µM [inhibitor, partial curve, poor fit] |
| CC(C)NC(=O)N1CCN(c2nccc(Nc3ccccc3F)n2)CC1 | inconclusive: 50.1 µM [inhibitor, partial curve, poor fit] |
| CO[C@H]1CN(C2CCN(C(=O)Cn3nc(C(F)(F)F)cc3C)CC2)[C@H]1c1cccnc1 | inactive |
| CCOc1ccccc1C(=O)Nc1cccc(-c2nnc3n2CCCC3)c1 | active: 39.8 µM |
| O=C(c1ccccc1)N1CC2(C1)C(=O)Nc1ccccc12 | inactive |

| Structure (SMILES) | Potency |
| --- | --- |
| COCCn1c(=O)c(C(=O)N2CCN(C(=O)c3ccc(C)cc3)CC2)nc2cccnc21 | inactive |
| COCC(=O)N1CCN(C(=O)c2ccc(-c3ccc(OC)nn3)cc2)CC1 | inactive |
| CC1(c2cccnc2)N(Cc2ccccc2)C(=O)OC12CCN(C(=O)c1cnccn1)CC2 (centres undefined) | active: 28.2 µM |
| CN1CCCCC1COc1ccc2c(n1)CN(Cc1ccccc1F)C(=O)CO2 (centres undefined) | inconclusive: 89.1 µM [inhibitor, partial curve, poor fit] |
| CC(NC(=O)COc1ccc(F)cc1)C(=O)N1CCN(c2ccccn2)CC1 (centres undefined) | inconclusive: 70.8 µM [inhibitor, single point] |
| Cc1ccc(-n2ncc3c2CC(C)(C)CC3NS(=O)(=O)c2cn(C)cn2)cc1 (centres undefined) | inconclusive: 50.1 µM [inhibitor, partial curve, poor fit] |
| CCN(CC)C[C@H]1O[C@H](Cc2cc(-c3ccccc3)on2)CC[C@@H]1O | inconclusive: 89.1 µM [inhibitor, partial curve, poor fit] |
| CNC(=O)c1cccc2c1CCN2C(=O)Nc1ccc(F)cc1 | inactive |
| O=C(NCc1cccc(C(F)(F)F)c1)c1cn2cc(-c3ccccc3)sc2n1 | inactive |
| O=C(NC1CCCC1)C1CCCN1C(=O)c1cccc(-c2ccccn2)c1 (centres undefined) | inactive |
| c1ccc(-c2cc3c(cn2)NCCN(CC2CC2)C3)cc1 | inconclusive: 100 µM [inhibitor, partial curve] |
| CC(C)OCCCNC(=O)CNC(=O)c1ccc(-c2cnc3ccccc3c2)cc1 | inactive |
| COCCN1CCCC[C@]2(C[C@H](CO)[C@H](c3ccccc3)N2C(=O)c2ccc(OC)cc2)C1=O | inconclusive: 50.1 µM [inhibitor, partial curve, poor fit] |
| CCOC(=O)c1cccc(NC(=O)N[C@H]2CO[C@H]3[C@@H]2OC[C@H]3OC(=O)Nc2ccccc2)c1 | inconclusive: 50.1 µM [inhibitor, partial curve, poor fit] |
| COc1ncccc1-c1cnc2[nH]cc(CC(=O)NC(C)C)c2c1 | inconclusive: 15.8 µM [inhibitor, full curve, poor fit] |
| O=C(NCc1ccccc1F)c1ccc2c(c1)CN(Cc1ccc3c(c1)CCO3)CCO2 | inconclusive: 70.8 µM [inhibitor, single point] |
| O=C1Nc2ccccc2CC12CCCCN2Cc1ccc(OC(F)(F)F)cc1 (centres undefined) | inconclusive: 35.5 µM [inhibitor, partial curve, poor fit] |
| COCCN1CCN(C[C@@H]2C=C(C)[C@H](Cc3nnc(COc4ccc(F)cc4)o3)C[C@H]2C(C)C)CC1 | inconclusive: 56.2 µM [inhibitor, partial curve, poor fit] |
| Cc1nc(CCNc2nc(-c3ccccn3)nc3c2c(C)nn3C)no1 | inconclusive: 79.4 µM [inhibitor, partial curve, poor fit] |
| CC(=O)N1CCCC(c2nn(C)c(=O)n2Cc2ccccc2)C1 (centres undefined) | inactive |
